# The list shows a part of the results. Sequences were assembled here from the parent chain. Inactive controls read about 0.05.
# B1: TEV protease; numbered along this chain (parent)
# chain: MGESLFKGPRDYNPISSSICHLTNESDGHTTSLYGIGFGPFIITNKHLFRRNNGTLVVQSLHGVFKVKDTTTLQQHLVDGRDMIIIRMPKDFPPFPQKLKFREPQREERICLVTTNFQTKSMSSMVSDTSCTFPSGDGIFWKHWIQTKDGQCGSPLVSTRDGFIVGIHSASNFTNTNNYFTSVPKNFMELLTNQEAQQWVSGWRLNADSVLWGGHKVFMVKPEEPFQPVKEATQL
# Variants of: B1
# Assay: raw area under fraction-flipped curve 0-4 h after induction (AUC4h, not background-subtracted), DNA-recorder readout of cleavage of the substrate (dimensionless); higher = more cleavage of the substrate by the protease variant
# Conditions: temperature: 34 °C; time window: 0-4 h after rhamnose induction
# Description: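 In vivo DNA recorder in E. coli TOP10(DE3) ΔrhaA at 34 °C. Each TEVp single-site mutant (parent TEVp 0) is paired with a single-site variant of the 7-mer TEVs (canonical ENLYFQ|S). The substrate sits between flexible linkers in a Bxb1-sfGFP-TEVs-SsrA fusion, so cleavage stabilises Bxb1 and speeds flipping of a recombination array, read by NGS. The value is the raw area under the fraction-flipped curve over 0-4 h after rhamnose induction (AUC4h), with ≥20 reads per time point. It is not background-subtracted; inactive controls average about 0.047.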
# 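Further: Bxb1 expression induced with 0.2% (w/v) L-rhamnose at OD600 near 0.5, cultures sampled hourly, flipped fraction per protease–substrate barcode pair counted by paired-end Illumina sequencing.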
Variant,area with substrate ENLYFQC,area with substrate ENLYFQG,area with substrate ENLYFQK,area with substrate ENLYFQL,area with substrate ENLYFQM,area with substrate ENLYFQN,area with substrate ENLYFQS,area with substrate ENLYFQV,area with substrate ENLYFQY,area with substrate ENLYFQW,area with substrate ENLYFQF,area with substrate ENLYFQR,area with substrate ENLYFQT,area with substrate ENLYFQI,area with substrate ENLYFQP,area with substrate ENLYFQD,area with substrate ENLYFQH,area with substrate ENLYFQQ,area with substrate ENLYFQE
G213F,0.0543,0.0754,0.0632,0.0727,0.0565,0.0496,0.062,0.0509,0.0605,–,–,–,–,–,–,–,–,–,–
V217A,0.0931,0.0985,–,–,0.0341,0.082,0.0766,–,–,0.0613,–,–,–,–,–,–,–,–,–
F218P,0.0136,–,0.0542,0.0676,0.0541,–,0.0598,–,0.0571,0.0638,0.0622,0.0586,0.0615,–,–,–,–,–,–
M219C,0.0709,0.0944,–,0.0585,0.0963,–,0.102,0.0613,–,0.0651,–,0.055,–,0.07,–,–,–,–,–
V220I,0.0994,–,–,–,–,0.0929,0.104,0.0659,0.0644,–,–,–,0.0822,0.0965,0.0536,–,–,–,–
K221Q,0.118,0.0824,0.0582,0.066,0.0578,0.0784,0.0988,–,–,0.0674,–,–,0.0751,–,0.0564,0.0507,0.0699,–,–
P222S,0.0882,–,0.0572,0.0551,0.0677,0.0709,0.0925,0.064,–,0.0503,–,0.0619,0.0744,–,0.0494,–,–,0.0573,–
P225I,0.0965,0.0929,0.0635,–,0.0803,–,0.093,–,–,–,–,–,–,–,0.0658,–,–,–,–
F226W,0.122,0.104,0.0722,0.0615,0.0795,0.0796,0.102,0.0721,0.0768,0.0647,0.0755,0.0612,0.0671,0.0504,0.0502,0.0901,0.0745,0.06,–
K230E,0.123,0.096,0.0632,–,0.0828,0.081,0.0939,0.0416,0.0591,0.0589,–,0.0672,0.0688,–,–,0.0902,0.106,0.0771,–
K230V,0.101,0.0905,0.0587,0.0714,0.0795,0.0718,0.101,–,0.0727,0.0587,0.0688,0.0675,0.0719,0.0838,0.0538,0.0785,0.0926,–,–
E231T,0.101,0.0942,0.0529,0.0586,0.104,–,0.0958,0.0659,–,0.0679,–,0.0778,0.0761,0.0565,0.0617,0.0703,–,0.065,0.0617
C20M,–,–,0.0757,0.0453,0.1,0.0799,0.0929,0.0572,0.0616,0.0688,0.0469,0.0568,0.0581,–,–,0.0579,–,–,–
C20R,–,0.0513,0.0461,0.0545,0.0447,0.0524,0.0492,0.0547,0.0434,0.0552,0.0316,0.0352,0.0283,0.0414,0.0364,0.0438,0.0532,–,0.0546
V67L,–,0.0834,0.034,–,0.0823,–,0.0969,0.0485,0.0664,0.0719,–,0.0562,0.0619,0.0481,–,0.0571,–,–,0.0738
S123M,–,0.0958,–,–,–,0.078,0.112,–,0.0366,–,0.0779,0.0674,0.0714,0.057,0.111,0.0819,0.0847,–,0.0495
S60L,–,–,0.0613,0.0336,–,0.0535,0.0928,0.0536,–,–,0.0588,0.0762,0.0878,–,–,–,–,–,–
G63Y,–,0.0809,0.0674,–,0.0746,0.0685,0.0833,–,–,0.0656,0.0684,0.0576,0.051,0.0502,–,–,0.0669,–,–
C111L,–,0.106,0.0579,0.0618,0.0958,0.07,0.108,0.0591,–,0.0665,–,0.0574,0.0643,–,–,–,0.085,–,–
W199H,–,0.0591,0.0725,0.056,0.0646,0.0741,0.0635,–,–,0.0496,–,0.0569,0.0608,0.0639,0.0624,–,0.047,–,–
E231H,–,0.104,0.0676,0.0694,–,0.0775,0.0974,–,–,0.0637,–,0.0571,0.0626,0.0651,–,–,–,–,–
T71W,–,–,–,0.0675,–,0.0711,0.0831,0.0842,–,0.0644,–,0.051,0.0718,0.0564,–,–,0.0581,0.0588,–
Q194R,–,–,–,0.0672,0.0784,0.0746,0.103,0.067,0.0835,–,–,0.0517,0.0795,0.0706,0.0635,–,0.0799,–,–
Q197K,–,–,0.0542,0.0475,0.0919,0.0618,0.0916,0.0669,0.0603,–,–,–,0.0565,–,0.035,–,0.0642,–,–
F163V,–,–,–,–,0.0788,0.0802,0.102,0.0612,–,0.0684,–,0.0795,0.0686,–,–,–,–,–,–
